According to PubChem BioAssay AID624296 (National Center for Advancing Translational Sciences (NCATS), 2012):
Among all 350,000 compounds or so, about 9,900 (2.8%) were called active. Inconclusive means that the source gave no clear call. Such entries were picked first, then a sample of the others. Calls follow the shape of the dose curve; as a rule, active = well fitted activation curve with a large enough effect; inconclusive = small, poorly fitted or top-dose-only effect; inactive = no such curve, though single readings can be large or run the other way. Potencies of inconclusive entries are left out as doubtful fits.

assay: A quantitative high throughput screen for small molecules that induce DNA re-replication in MCF 10a normal breast cells.; also: nearly all actives have a fitted effect of over 50% in size; as to activity, positive = re-replication: % of control where 0% means no effect; settings: MCF 10A DNA re-replication, Hoechst nuclear intensity, 48 h; activity, positive = re-replication: at 46.1 µM (top of the series)
Potency is read from the fitted curve at half-maximal effect; tags tell the direction and shape of the fitted curve.

Row | SMILES | Potency | activity, positive = re-replication
1 | CCCC(=O)Nc1sc(C)c(C)c1C(=O)Nc1cccc(C)c1 | inactive | –
2 | Nc1ccc(N2CCN(c3ccc(F)cc3)CC2)cc1 | inconclusive [activator, single point] | –
3 | CCN(CC)c1ccc2c(C)c(-c3ccc(N)cc3)c(=O)oc2c1 | active: 3.66 µM | –
4 | COc1cccc(-c2cc(C(F)(F)F)nc(N3CCCCC3)n2)c1 | active: 16.4 µM | –
5 | Cn1ncc2c(O/N=C(\N)c3ccc(C(F)(F)F)cc3)ncnc21 | inconclusive [activator, partial curve, poor fit] | –
6 | Cc1ncc([N+](=O)[O-])n1CCOC(=O)Nc1ccc(Cl)c(Cl)c1 | inactive | –
7 | CCOC(=O)c1sc2ccc(S(=O)(=O)N3CC(C)CC(C)C3)cc2c1N (stereo unspecified) | inactive | –
8 | COc1ccc(NCC(=O)n2c(C)c(C)c3ccccc32)cc1 | active: 18.4 µM | –
9 | CN(C)S(=O)(=O)N1CCC(Oc2cccc(C(=O)NC3CCOC3)c2)CC1 (stereo unspecified) | inactive | –
10 | CN1CCc2c(sc3c2C(=O)NC(c2cn(Cc4ccccc4)c4ccccc24)N3)C1 (stereo unspecified) | inconclusive [activator, partial curve, poor fit] | –
11 | CC(=O)OCC1OC(n2cc(F)c(=O)[nH]c2=O)C(OC(C)=O)C1OC(C)=O (stereo unspecified) | inconclusive [activator, single point] | –
12 | CN(C)CCNC(=O)c1nn(C)c2c1CCc1ccccc1-2 | inactive | –
13 | CCOc1ccccc1/C=N/Nc1ccc(Cl)nn1 | inactive | –
14 | COc1ccc(OC)c2cc3ccccc3cc12 | inconclusive [activator, full curve] | –
15 | Cc1c(C(=O)Oc2cccc3cccnc23)cccc1[N+](=O)[O-] | inconclusive [activator, single point] | –
16 | O=C(COC(=O)c1ccc(S(=O)(=O)Nc2ccccc2)cc1)NC1CCCC1 | inactive | –
17 | Cc1cc(C(=O)CSc2ncnc3ccccc23)c(C)n1C1CC1 | inactive | –
18 | Cn1cc(C(=O)C(=O)N2CCc3ccccc32)c2ccccc21 | inactive | –
19 | CCN(Cc1ccncc1)C(=O)c1ccc2c(c1)S(=O)(=O)c1ccccc1C2=O | inconclusive [activator, partial curve, poor fit] | –
20 | CCOc1ccc(CCNC(=O)COC(=O)c2cccc(S(=O)(=O)N3CCCCC3)c2)cc1OCC | – | inconclusive: 91.5% [activator]
21 | O=C1c2ccccc2NC(c2ccc(Br)o2)N1O (stereo unspecified) | inconclusive [activator, partial curve, poor fit] | –
22 | COc1ccc(CN2CCN(C(=O)C3CC(=O)N(C4CCCCCC4)C3)CC2)c(OC)c1OC (stereo unspecified) | inconclusive [activator, single point] | –
23 | COCC(C)n1c(SCC(=O)Nc2c(C)n(C)n(-c3ccccc3)c2=O)nc2ccccc2c1=O (stereo unspecified) | inconclusive [activator, single point] | –

Row | SMILES | Potency | activity, positive = re-replication
24 | COc1ccc(-c2coc3cc4oc(=O)cc(C)c4cc23)cc1F | active: 5.17 µM | –
25 | COc1ccc(C(=O)c2oc3ccccc3c2N)cc1 | active: 18.4 µM | –
26 | CC1=C(C(=O)OCc2ccccc2)C(c2ccsc2)C(C#N)=C(N)O1 (stereo unspecified) | inconclusive [activator, full curve, poor fit] | –
27 | Cc1cccc(OCc2nnc(SCC(=O)N3c4ccccc4CCc4ccccc43)o2)c1 | inactive | –
28 | CCN1C(=O)[C@H]2[C@@H](c3ccc(-c4ccc5c(c4)OCO5)cc3)N3CCC[C@@]3(C(=O)OC)[C@H]2C1=O | inconclusive [activator, partial curve, poor fit] | –
29 | CCn1cc(C(=O)N[C@@H](C)C(=O)OC)c(=O)c2cc3c(cc21)OCO3 | inactive | –
30 | CN(Cc1ccccc1)C1CCN(Cc2ccccc2[N+](=O)[O-])CC1 | inconclusive [activator, single point] | –
31 | O=C(Nn1c(Cc2ccccc2)nc2ccccc2c1=O)c1c(O)c2cccc3c2n(c1=O)CCC3 | inconclusive [activator, single point] | –
32 | CCOc1ccc(NC(=O)c2cc(OC)nc3ccccc23)cc1 | active: 23.1 µM | –
33 | COC(=O)c1ccc(COC(=O)c2ccc(CS(=O)(=O)c3ccc(C)cc3)cc2)cc1 | inactive | –
34 | O=C(NC(=S)Nc1ccccc1N1CCCC1)c1ccco1 | inconclusive [activator, single point] | –
35 | Cc1ccc(-c2c(C(=O)NNC(=S)NCC3CCCO3)csc2C)cc1 (stereo unspecified) | inactive | –
36 | COc1ccc(C(=O)N=C2SC3CS(=O)(=O)CC3N2Cc2ccc(F)cc2)cc1 (stereo unspecified) | inconclusive [activator, partial curve, poor fit] | –
37 | COc1ccc2c(c1)[C@H]1[C@H](CO2)[C@H](c2ccccc2)[C@]2(C)C(=O)Nc3cc(F)ccc3C(=O)N12 | inconclusive [activator, single point] | –
38 | O=C(NC1CCCCC1)C(c1ccc(F)cc1)N(CCc1ccccc1)C(=O)CN1C(=O)c2ccccc2S1(=O)=O (stereo unspecified) | inconclusive [activator, full curve, poor fit] | –
39 | O=C(c1ccc(COc2ccc(Cl)cc2Cl)o1)N1CCCC1 | inactive | –
40 | COc1cccc(/C=C/C(=O)Nc2cc(S(=O)(=O)N3CCOCC3)ccc2OC)c1 | inactive | –
41 | CC(C)(C)OC(=O)NCc1ccc(CNC(=O)c2[nH]cnc2C(=O)N[C@@H](Cc2ccccc2)C(=O)OC(C)(C)C)cc1 | inconclusive [activator, single point] | –
42 | NS(=O)(=O)c1ccc(Sc2nc3ccccc3s2)c([N+](=O)[O-])c1 | active: 5.8 µM | –
43 | CCOC(=O)CN1C(=O)C(O)(CC(=O)c2ccco2)c2ccccc21 (stereo unspecified) | inconclusive [activator, single point] | –
44 | CC(=O)c1ccc(NC(=O)C(C)Sc2n[nH]c(-c3cccnc3)n2)cc1 (stereo unspecified) | inconclusive [activator, single point] | –
45 | O=C(Nc1cccc(C(=O)N2CCOCC2)c1)NC1CCCCC1 | inactive | –
46 | COc1ccc(C(=O)NCC2(c3ccccc3)CCCC2)c(OC)c1 | inconclusive [activator, single point] | –
